Results: article PMC4336329 (PLoS ONE, 2015)
Hit rate of the full screen: of about 310,000 compounds, about 14,000 (4.5%) showed an effect of 50% or more. The effect is printed as a negative number. The list shows a part of the results.
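Also: peak tail current of the secondary pulse compared with the same well before compound.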

The compounds below were run against human ether-à-go-go-related gene (hERG) potassium channel (human, UniProt Q12809) (assay: primary screen, population patch clamp on CHO cells stably expressing hERG).
Sequence of human ether-à-go-go-related gene (hERG) potassium channel (Q12809 whole entry, looked up): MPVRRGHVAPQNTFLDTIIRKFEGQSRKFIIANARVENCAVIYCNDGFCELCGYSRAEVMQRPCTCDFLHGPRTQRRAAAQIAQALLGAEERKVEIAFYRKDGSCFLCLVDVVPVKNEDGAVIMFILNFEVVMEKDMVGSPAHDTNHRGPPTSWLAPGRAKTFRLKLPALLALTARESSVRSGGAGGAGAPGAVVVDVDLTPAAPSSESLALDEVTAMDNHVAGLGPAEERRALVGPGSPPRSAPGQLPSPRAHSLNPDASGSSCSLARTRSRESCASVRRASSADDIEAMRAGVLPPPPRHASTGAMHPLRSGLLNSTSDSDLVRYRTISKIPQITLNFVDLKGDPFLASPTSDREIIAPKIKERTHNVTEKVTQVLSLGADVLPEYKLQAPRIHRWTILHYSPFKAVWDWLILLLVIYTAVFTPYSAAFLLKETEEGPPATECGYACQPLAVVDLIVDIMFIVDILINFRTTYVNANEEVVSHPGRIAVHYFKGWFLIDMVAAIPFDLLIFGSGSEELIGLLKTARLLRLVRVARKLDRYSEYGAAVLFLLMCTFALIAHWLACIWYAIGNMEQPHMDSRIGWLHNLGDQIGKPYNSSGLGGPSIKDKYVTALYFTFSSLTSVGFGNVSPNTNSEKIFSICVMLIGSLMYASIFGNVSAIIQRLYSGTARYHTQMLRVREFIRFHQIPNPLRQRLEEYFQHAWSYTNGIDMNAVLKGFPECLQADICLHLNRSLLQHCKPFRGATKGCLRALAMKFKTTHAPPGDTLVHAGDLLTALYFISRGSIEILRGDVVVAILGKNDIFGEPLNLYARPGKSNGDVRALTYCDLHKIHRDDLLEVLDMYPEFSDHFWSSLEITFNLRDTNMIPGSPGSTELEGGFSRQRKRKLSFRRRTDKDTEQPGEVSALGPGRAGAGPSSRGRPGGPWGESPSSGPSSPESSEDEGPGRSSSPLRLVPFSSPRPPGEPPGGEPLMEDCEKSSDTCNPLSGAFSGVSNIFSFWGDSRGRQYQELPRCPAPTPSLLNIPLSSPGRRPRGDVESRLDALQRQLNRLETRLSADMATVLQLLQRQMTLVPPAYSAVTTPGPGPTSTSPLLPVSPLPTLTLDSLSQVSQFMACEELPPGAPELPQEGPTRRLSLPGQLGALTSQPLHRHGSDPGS
In the case of `O=C(CCN1C(=O)/C(=C/c2ccccc2)SC1=S)NCCc1ccc(O)cc1`, the “hERG current change (%, negative = inhibition) at 10uM” value is reported as 8.84%. With `CCOc1ccc(S(=O)(=O)NCCSc2ccccc2)cc1` the “hERG current change (%, negative = inhibition) at 10uM” value was -33.4%. With `COc1cc(C2NCC(c3ccc(Cl)cc3Cl)c3c2[nH]c2ccccc32)cc(OC)c1OC.Cl` (stereo not drawn) the “hERG current change (%, negative = inhibition) at 10uM” value was 7.58%. `CCCC(=O)Nc1ccc2c(c1)nc(CCN1CCN(c3ccccn3)CC1)n2C` was tested, and the “hERG current change (%, negative = inhibition) at 10uM” value was -25.5%. `O=C(COc1ccccc1)c1cn(CC(=O)N2CCOCC2)c2ccccc12` was tested, and the “hERG current change (%, negative = inhibition) at 10uM” value was -2.63%. In the case of `COCCNC(=O)c1cc2c(=O)n3cccc(C)c3nc2n(Cc2ccncc2)c1=N`, the “hERG current change (%, negative = inhibition) at 10uM” value is reported as -70%. For `O=C(CSC(=S)N1CCCC1)NCCc1ccccc1`, the “hERG current change (%, negative = inhibition) at 10uM” value was -14%. With `CCC(CO)Nc1ccc(-c2n[nH]c(=O)c3ccccc23)cc1[N+](=O)[O-]` (stereo not drawn) the “hERG current change (%, negative = inhibition) at 10uM” value was 7.43%. In the case of `NC(=O)c1c[nH]c2ccccc12`, the “hERG current change (%, negative = inhibition) at 10uM” value is reported as 8.51%. For `O=C(O)C1CC=CCC1C(=O)Nc1ccccc1C(=O)N1CCN(c2ccccc2)CC1` (stereo not drawn), the “hERG current change (%, negative = inhibition) at 10uM” value was 0.797%. For `CN(C)C(=O)CS(=O)(=O)c1ccc(Cl)cc1`, the “hERG current change (%, negative = inhibition) at 10uM” value was 1.28%. In the case of `CCOC(=O)c1ccc2[nH]c3c(c2c1)CCCC3C(=O)OCC` (stereo not drawn), the “hERG current change (%, negative = inhibition) at 10uM” value is reported as -16.3%. With `Nc1sc2c(c1C(=O)NC1CCS(=O)(=O)C1)CCC2` (stereo not drawn) the “hERG current change (%, negative = inhibition) at 10uM” value was 10.9%. With `O=c1[nH]cnc2c1nc(SCc1ccccc1)n2C1OC(CO)C(O)C1O` (stereo not drawn) the “hERG current change (%, negative = inhibition) at 10uM” value was -2.32%. `CC(C)COc1ccc(C(=O)Nc2ccc(NC(=O)c3ccco3)c(Cl)c2)cc1` was tested, and the “hERG current change (%, negative = inhibition) at 10uM” value was 11.6%. In the case of `CCN(C(=O)c1cc2c(s1)-c1ccccc1OC2)c1cc(OC)ccc1OC`, the “hERG current change (%, negative = inhibition) at 10uM” value is reported as 1.43%. With `CC1SC(=NC(=O)c2ccncc2)NC1=O` (stereo not drawn) the “hERG current change (%, negative = inhibition) at 10uM” value was 23.6%. `O=C(Nc1ccc(C(=O)O)cc1)Nc1ccc(F)cc1F` was tested, and the “hERG current change (%, negative = inhibition) at 10uM” value was -7.2%. With `CCOC(=O)Cn1c(=NC(=O)C2COc3ccccc3O2)sc2cc(S(N)(=O)=O)ccc21` (stereo not drawn) the “hERG current change (%, negative = inhibition) at 10uM” value was 8.95%. `COc1ccc(-c2ccc3sc4ccccc4c(=O)c3c2)cn1` was tested, and the “hERG current change (%, negative = inhibition) at 10uM” value was -17.2%. For `O/N=C/c1cn(-c2ccccc2)nn1`, the “hERG current change (%, negative = inhibition) at 10uM” value was 2.04%. In the case of `Cc1ccc(C(=O)Oc2ccc(/C=C3\C(=N)N4N=C(N5CCOCC5)SC4=NC3=O)cc2)cc1`, the “hERG current change (%, negative = inhibition) at 10uM” value is reported as 27.9%. With `CCCCc1nnc(NC(=O)CC(=O)Nc2ccccc2C(=O)O)s1` the “hERG current change (%, negative = inhibition) at 10uM” value was 3.71%. With `Cc1cc(C)c(C#N)c(SCC(=O)Nc2ccc(S(=O)(=O)Nc3onc(C)c3C)cc2)n1` the “hERG current change (%, negative = inhibition) at 10uM” value was 4.6%.
